# ± gives the standard deviation. Whole data set: some 6,600 sequences, median “pre-steady-state target cleavage rate” near 0.07, cut for the highest 2% near 0.72. The list shows a part of the results, in another mix than the full data.
# Tested on: MIWI (PIWIL1) piRISC loaded with Kctd7 piRNA (30 nt)
# Assay: pre-steady-state target cleavage rate (min^-1); MIWI and MILI are mouse PIWI proteins and EfPiwi is from a freshwater sponge; tags in brackets are library labels; higher = faster piRNA-guided slicing of the target
# Settings: guide: Kctd7 piRNA 5'p-UGUUAAUCUCUCAGAGAAGGUGACAGUGAU; auxiliary factor: 500 nM mouse GTSF1
# How it was run: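 In this Cleave-'n-Seq assay, uncleaved targets were sequenced and normalised to depth and to weakly complementary targets. They came from a transcribed, DNA-blocked target RNA library […] mixed with 1 nM active affinity-purified piRISC carrying one synthetic guide, with or without 500 nM GTSF1 partner protein, in HEPES–potassium acetate buffer at 33 °C for 0–8 or 0–960 min. After three trials were pooled and k3 was capped at 0.0001 min^-1, the pre-steady-state cleavage rate was obtained from a burst-and-steady-state fit.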
# 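Further: 1 nM active piRISC with 0.1 nM target library at 33 °C single turnover.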
row,Sequence,pre-steady-state target cleavage rate
1,UACACUGACACCUUCUCUCAGAGAUUAACA,0.0777 ± 0.01
2,AUCACUGUCACCUUCUCUGACAGAUUAACA,0.364 ± 0.035
3,UAGUCUGAGACCUUCUCUGAGAGAUAUUGA,0.00315 ± 0.0026
4,UAGUCUGUCACCUACUCUGAGAGAAUAACA,0.326 ± 0.051
5,UAGACUGUCACCUUCUCUGAGAGAGUAACA,0.331 ± 0.032
6,UUAACUGUCACCUUCUCUGAGAGAUUAACA,0.581 ± 0.022
7,AUCACUCUCACCUUCUCUGAGAGAUUAAGA,0.0592 ± 0.016
8,UAGUGAGACACCUUCUCUGAGAGAUUAUCA,0.24 ± 0.044
9,UUCACUGUCACGUUCUCUGUGAGAUUAACA,0.175 ± 0.011
10,UAGUCUGUCACCUAUCUCUGAGAGAUUAACA,0.469 ± 0.031
11,UAGUGAGUCACCUUCUCAGAGAGUUUAACA,0.266 ± 0.047
12,UUCACUGUCACCAUCUCUGAGACAUUAACA,0.0714 ± 0.0062
13,UACACUGUCACCUUGUCUGUGAGAUUAACA,0.113 ± 0.011
14,AUCACUGUCACCUUCUCUGAGAGCAUUAACA,0.478 ± 0.037
15,UACACUGUCACCUUCUCUGAGACUAUAACA,0.0087 ± 0.0038
16,AUCACUGUACCUUCUCUGAGAGAUUAACA,0.769 ± 0.051
17,UUCACUGUCACCAUCUGUGAGAGAUUAACA,0.321 ± 0.021
18,UAGUGACUCAGCUUCUCUGAGAGAUAAACA,0.04 ± 0.0045
19,UAGUGACUGACCUACUCUGAGAGAUUAACA,0.0643 ± 0.0073
20,UAGUGACACACGUUCUCUGAGAGAUUAUGA,0.00533 ± 0.002

row,Sequence,pre-steady-state target cleavage rate
1,UAGUGAGUCAGCUUCUGUGAGAGAUUAACA,0.406 ± 0.027
2,UACAGUGUCACCUUCUCUGAGAGAUAUUGA,0.0949 ± 0.027
3,UAGUGACACACCUUCUCUGAGAGCAUUAACA,0.296 ± 0.042
4,AUCACUGUCACCUUCUCUGAGAGAUAACA,0.232 ± 0.037
5,UAGUGUGUCUCCUUCACUGAGAGAUUAACA,0.119 ± 0.011
6,UAGACUGUCACCUUCUCUAGAGAUUAACA,0.136 ± 0.0091
7,UAGUGACUCACCUUCUCUGAGAGUAAAUGA,0.00493 ± 0.0032
8,AUCACAGUCUCCUUCUCUGAGAGAUUAACA,0.511 ± 0.032
9,UAGUGACUCUCCUUCUCUGAGACAUUAACA,0.0463 ± 0.0073
10,AUGACAGUCACCUUCUCUGAGAGAUUAACA,0.657 ± 0.024
11,UAGUGACAGUCCUUUUCUGAGAGAUUAACA,0.0193 ± 0.0042
12,UAGACUGUGACCUUCUCUGAGACAUUAACA,0.075 ± 0.0091
13,UAGUGAGUCACCUUCUCUGACGAGAUUAACA,0.0116 ± 0.0049
14,UAGUGACUCACCUUCUCUGGAGAUUAACA,0.0282 ± 0.0065
15,UAGUGUGAGUCCUUCUCUGAGAGAUUAACA,0.101 ± 0.011
16,UAGUCUGUCACCUUCAGAGAGAGAUUUUGA,0.00669 ± 0.0048
17,UACACUGUCACCUUCUCUGAGAGAAUAAGA,0.0626 ± 0.023
18,AUCACUGUCACCUUCUCUGAGAGAUUAAAA,0.169 ± 0.023
19,CUCACUGUCACCUUCUCUGAGAGAUUAACA,0.714 ± 0.031
20,UUCACUGUCACCUUCUCUGAGAGAUAAUGA,0.101 ± 0.029

# Reference: the supplement of paper PMC10338343
